Measurements: article PMC6197184
No constants are given. Whether binding was seen depends on the method and setting. Binding seen in cells or lysates may run through a third protein. Some results given as binding are weak or reduced against the parent protein; the word gives no strength. For some assays here: Sequences can lack the tags named with a protein. Blank lines part the entries; values can stand above or below the binder they belong to.

The chains behind the UniProt entries cited, without tags or fusion partners. Residues count along the entry.
UniProt P19838, residues 1-433: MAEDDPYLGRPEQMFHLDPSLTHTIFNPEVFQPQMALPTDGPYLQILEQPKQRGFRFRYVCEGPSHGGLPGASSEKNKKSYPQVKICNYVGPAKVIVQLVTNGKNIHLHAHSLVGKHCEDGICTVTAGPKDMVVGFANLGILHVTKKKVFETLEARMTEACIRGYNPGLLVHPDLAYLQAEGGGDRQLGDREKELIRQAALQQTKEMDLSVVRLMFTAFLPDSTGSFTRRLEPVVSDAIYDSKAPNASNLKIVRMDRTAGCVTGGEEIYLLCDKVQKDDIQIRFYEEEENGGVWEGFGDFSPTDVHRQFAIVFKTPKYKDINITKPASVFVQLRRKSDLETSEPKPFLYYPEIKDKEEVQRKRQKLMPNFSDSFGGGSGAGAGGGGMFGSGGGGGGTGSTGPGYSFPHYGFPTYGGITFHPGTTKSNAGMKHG
UniProt Q96EP0: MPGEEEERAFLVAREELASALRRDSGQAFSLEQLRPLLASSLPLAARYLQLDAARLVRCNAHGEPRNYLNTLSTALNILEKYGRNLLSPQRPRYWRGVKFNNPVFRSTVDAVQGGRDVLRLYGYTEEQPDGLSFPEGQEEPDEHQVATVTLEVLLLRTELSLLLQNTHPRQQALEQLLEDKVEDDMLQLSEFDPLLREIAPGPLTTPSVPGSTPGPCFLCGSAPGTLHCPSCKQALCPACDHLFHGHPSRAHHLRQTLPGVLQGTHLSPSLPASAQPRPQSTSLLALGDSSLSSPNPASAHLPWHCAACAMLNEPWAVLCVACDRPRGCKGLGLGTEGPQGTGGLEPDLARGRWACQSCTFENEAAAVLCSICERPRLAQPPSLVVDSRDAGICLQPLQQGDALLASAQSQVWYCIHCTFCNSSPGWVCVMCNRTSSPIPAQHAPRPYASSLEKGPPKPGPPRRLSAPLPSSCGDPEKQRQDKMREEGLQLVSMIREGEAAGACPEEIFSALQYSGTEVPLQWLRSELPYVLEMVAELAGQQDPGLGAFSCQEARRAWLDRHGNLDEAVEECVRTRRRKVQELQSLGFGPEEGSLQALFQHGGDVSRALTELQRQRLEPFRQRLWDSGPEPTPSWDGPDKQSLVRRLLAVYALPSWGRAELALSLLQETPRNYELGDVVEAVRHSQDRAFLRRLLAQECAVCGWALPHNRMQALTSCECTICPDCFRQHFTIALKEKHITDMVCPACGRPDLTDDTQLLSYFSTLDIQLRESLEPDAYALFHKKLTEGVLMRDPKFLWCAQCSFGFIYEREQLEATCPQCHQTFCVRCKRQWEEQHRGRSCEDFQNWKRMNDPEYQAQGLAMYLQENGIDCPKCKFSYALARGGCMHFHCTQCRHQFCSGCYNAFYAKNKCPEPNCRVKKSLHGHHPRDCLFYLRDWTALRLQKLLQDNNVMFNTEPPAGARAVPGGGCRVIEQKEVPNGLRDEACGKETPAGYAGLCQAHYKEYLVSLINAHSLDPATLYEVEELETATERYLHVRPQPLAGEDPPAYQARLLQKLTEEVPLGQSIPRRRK
UniProt Q04206: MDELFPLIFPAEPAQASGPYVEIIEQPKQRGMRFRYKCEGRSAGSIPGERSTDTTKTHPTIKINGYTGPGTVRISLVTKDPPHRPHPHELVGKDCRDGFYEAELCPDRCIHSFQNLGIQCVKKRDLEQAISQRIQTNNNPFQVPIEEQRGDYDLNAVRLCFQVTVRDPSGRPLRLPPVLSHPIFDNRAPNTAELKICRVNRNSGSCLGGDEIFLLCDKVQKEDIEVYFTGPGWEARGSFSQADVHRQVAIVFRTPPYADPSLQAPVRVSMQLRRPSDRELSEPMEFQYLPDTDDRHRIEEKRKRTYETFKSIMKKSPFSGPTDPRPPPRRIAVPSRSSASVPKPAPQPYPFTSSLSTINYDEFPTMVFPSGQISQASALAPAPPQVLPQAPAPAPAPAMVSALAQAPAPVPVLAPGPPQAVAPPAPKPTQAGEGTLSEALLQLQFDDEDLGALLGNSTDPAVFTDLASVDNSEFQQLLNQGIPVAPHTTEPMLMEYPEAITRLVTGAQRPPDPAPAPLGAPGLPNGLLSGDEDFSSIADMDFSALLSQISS

Columns and labels:
p50 = p50 (UniProt P19838); experiment: co-IP; 293T cells co-transfected with tagged proteins; lysates immunoprecipitated with tag antibodies and protein G beads at 4 °C overnight, washed with IP buffer (50 mM Tris-HCl pH 7.4, 150 mM NaCl, 1% Nonidet P40), immunoblot; reciprocal; competition co-IP with CYPJ overexpression
HOIP = HOIP (UniProt Q96EP0); experiment: as above
Flag-TAB3 [1] = biological target: T1, Flag-TAB3 (UniProt Q8N5C8); experiment: as above
T1 sequence: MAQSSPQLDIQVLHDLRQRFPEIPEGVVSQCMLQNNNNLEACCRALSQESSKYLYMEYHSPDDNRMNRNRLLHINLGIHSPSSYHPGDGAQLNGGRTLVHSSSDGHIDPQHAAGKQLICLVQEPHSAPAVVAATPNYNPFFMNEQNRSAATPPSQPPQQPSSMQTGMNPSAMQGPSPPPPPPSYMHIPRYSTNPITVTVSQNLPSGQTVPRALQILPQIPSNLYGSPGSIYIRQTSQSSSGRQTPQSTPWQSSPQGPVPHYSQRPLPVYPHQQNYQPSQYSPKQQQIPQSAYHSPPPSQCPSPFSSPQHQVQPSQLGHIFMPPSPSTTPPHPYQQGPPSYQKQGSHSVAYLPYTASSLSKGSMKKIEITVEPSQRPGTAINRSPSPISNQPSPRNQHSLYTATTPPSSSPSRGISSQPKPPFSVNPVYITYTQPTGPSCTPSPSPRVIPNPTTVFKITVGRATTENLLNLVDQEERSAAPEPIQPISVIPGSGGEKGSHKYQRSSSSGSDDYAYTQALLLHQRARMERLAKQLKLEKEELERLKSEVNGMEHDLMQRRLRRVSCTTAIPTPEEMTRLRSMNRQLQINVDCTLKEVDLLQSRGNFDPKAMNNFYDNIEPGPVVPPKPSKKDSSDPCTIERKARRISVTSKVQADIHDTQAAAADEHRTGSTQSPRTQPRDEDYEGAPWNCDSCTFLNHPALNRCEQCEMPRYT

[2] = biological target: T2, Flag-TAB2 (full-length TAK1-binding protein 2) (UniProt Q9NYJ8); experiment: as above
T2 sequence: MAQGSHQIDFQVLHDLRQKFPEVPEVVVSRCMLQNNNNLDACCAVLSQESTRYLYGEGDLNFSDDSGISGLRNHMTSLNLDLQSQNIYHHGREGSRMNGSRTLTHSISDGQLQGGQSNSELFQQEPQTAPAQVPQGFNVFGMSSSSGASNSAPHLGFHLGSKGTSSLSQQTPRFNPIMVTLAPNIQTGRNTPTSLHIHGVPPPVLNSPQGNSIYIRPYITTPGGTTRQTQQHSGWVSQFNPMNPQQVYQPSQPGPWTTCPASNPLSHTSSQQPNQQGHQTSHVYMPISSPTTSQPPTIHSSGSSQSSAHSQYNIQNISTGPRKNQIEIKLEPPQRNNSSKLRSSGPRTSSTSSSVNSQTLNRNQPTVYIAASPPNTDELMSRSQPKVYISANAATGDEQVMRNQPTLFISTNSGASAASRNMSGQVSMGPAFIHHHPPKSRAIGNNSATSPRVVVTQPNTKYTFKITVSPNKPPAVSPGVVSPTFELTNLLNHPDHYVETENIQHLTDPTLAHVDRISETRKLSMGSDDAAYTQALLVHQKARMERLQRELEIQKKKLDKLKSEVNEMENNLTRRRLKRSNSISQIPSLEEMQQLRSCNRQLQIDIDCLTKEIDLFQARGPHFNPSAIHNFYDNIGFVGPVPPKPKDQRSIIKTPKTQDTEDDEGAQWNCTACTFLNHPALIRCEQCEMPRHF

[3] = biological target: T3, TAK1 (transforming growth factor β-activated kinase 1) (UniProt O43318); experiment: as above
T3 sequence: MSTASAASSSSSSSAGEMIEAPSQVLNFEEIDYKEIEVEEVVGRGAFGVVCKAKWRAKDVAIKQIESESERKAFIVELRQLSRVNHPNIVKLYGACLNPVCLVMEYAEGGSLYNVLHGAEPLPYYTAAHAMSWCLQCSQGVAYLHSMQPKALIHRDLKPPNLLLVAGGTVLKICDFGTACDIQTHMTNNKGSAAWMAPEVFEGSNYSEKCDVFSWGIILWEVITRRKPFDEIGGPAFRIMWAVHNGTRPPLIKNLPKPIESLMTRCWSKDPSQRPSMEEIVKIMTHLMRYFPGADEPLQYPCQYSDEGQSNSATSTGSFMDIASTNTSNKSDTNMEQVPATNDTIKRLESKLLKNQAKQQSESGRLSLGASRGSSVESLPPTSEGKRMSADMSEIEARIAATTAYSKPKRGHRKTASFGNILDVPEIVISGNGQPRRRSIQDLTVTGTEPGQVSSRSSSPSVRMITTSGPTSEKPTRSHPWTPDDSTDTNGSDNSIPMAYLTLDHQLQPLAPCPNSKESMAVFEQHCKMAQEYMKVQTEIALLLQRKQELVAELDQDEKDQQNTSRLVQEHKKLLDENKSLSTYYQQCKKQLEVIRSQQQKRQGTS

TRAF2 = biological target: T4, TRAF2 (UniProt Q12933); experiment: as above
T4 sequence: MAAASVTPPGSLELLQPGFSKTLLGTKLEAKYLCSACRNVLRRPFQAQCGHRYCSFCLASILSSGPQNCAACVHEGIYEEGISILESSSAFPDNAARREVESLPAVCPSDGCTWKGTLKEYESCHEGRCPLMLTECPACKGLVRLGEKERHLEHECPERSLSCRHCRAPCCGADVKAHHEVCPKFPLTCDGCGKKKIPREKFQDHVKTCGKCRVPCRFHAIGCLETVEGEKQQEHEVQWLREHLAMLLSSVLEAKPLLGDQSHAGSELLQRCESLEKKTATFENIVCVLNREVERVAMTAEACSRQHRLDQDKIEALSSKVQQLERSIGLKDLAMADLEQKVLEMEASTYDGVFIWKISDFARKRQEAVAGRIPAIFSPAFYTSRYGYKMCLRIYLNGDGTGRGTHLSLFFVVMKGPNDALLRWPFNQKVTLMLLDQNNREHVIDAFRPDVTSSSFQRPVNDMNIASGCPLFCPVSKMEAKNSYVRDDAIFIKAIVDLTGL

p65 = p65 (UniProt Q04206); experiment: as above
[4] = biological target: T5, GST-TAB2 FL (GST-fused full-length TAB2) (UniProt Q9NYJ8); experiment: pull-down; GST or GST fusion proteins from E. coli on Glutathione Sepharose 4B incubated with lysates of transfected 293T cells at 4 °C overnight; washed with PBS or IP buffer; immunoblot; only the target purified
T5 sequence: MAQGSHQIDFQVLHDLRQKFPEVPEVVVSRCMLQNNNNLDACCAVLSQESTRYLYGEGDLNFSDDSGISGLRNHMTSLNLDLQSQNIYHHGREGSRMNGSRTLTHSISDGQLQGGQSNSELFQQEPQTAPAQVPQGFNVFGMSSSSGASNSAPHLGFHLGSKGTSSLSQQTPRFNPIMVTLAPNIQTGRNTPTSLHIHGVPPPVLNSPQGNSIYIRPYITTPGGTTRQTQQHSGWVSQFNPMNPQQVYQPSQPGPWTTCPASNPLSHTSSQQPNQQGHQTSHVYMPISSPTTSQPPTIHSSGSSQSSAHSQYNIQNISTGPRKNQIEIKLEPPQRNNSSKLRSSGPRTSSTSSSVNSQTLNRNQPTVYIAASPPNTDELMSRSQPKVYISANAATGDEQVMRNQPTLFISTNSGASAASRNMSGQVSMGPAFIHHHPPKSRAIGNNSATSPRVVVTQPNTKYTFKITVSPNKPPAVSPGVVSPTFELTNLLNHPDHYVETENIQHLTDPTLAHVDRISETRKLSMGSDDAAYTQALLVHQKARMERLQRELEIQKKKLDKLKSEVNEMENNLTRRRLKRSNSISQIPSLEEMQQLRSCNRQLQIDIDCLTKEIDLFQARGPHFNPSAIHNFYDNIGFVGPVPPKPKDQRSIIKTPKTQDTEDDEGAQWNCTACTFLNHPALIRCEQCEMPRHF

Flag-TAB3 [5] = biological target: T1, Flag-TAB3; experiment: co-IP; ubiquitin assay: 293T cells (WT or CYPJ-knockout) transfected with HA-Ub or its mutants and Flag-TAB2/3 or mutants, with or without Myc-CYPJ; IP with anti-Flag antibody and protein G beads at 4 °C overnight; polyubiquitin detected with anti-HA
[6] = biological target: T2, Flag-TAB2 (full-length TAK1-binding protein 2); experiment: as above
[7] = biological target: T6, endogenous TAB3 (human (endogenous in 293T)) (UniProt Q8N5C8); experiment: co-IP; endogenous proteins; lysates of 293T cells (WT or CYPJ-knockout) treated with or without TNF for different times; IP with anti-TAB2, anti-TAB3 or control IgG; immunoblot with anti-CYPJ or anti-K63 Ub
T6 sequence: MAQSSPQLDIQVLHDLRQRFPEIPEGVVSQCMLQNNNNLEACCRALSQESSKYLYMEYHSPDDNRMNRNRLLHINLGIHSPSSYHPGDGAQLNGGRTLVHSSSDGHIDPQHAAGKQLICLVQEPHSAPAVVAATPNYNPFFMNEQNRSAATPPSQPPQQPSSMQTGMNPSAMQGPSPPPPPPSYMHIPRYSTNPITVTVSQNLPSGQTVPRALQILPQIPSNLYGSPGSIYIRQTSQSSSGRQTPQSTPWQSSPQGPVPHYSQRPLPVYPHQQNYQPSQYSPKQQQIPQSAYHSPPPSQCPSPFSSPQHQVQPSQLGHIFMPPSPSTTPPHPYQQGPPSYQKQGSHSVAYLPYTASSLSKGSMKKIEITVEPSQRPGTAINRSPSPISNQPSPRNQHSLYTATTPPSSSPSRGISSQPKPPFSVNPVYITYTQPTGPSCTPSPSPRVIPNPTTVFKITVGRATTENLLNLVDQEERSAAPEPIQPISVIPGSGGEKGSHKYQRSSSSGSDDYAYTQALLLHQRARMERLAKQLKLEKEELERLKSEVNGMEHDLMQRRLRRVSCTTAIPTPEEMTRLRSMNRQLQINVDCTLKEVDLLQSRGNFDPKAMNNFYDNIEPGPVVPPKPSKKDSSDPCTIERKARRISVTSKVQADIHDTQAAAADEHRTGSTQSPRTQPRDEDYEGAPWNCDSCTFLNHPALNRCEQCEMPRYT

[8] = biological target: T7, endogenous TAB2 (human (endogenous in 293T)) (UniProt Q9NYJ8); experiment: as above
T7 sequence: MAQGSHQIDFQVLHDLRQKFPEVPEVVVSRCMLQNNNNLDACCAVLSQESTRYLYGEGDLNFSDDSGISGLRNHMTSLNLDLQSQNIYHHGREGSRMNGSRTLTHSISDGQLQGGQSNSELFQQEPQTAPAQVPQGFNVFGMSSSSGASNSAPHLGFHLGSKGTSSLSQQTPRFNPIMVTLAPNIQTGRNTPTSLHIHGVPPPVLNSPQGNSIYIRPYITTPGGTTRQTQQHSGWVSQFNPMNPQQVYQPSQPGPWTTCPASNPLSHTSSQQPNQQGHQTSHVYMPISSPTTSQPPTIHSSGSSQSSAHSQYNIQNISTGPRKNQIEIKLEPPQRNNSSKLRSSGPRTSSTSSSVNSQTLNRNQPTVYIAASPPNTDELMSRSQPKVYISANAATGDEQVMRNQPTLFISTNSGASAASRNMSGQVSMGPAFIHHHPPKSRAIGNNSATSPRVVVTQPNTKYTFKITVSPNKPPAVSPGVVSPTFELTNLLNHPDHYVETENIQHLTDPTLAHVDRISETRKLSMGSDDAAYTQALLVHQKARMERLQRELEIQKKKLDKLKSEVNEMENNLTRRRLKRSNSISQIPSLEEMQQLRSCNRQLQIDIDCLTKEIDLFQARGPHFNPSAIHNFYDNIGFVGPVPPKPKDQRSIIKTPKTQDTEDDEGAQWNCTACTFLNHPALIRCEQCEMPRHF

- binding (p50): no binding
- binding (HOIP): binds
- binding (Flag-TAB3 [1]): binds
- binding [2]: binds
- binding [3]: no binding
- binding (TRAF2): no binding
- binding (p65): no binding
- binding [4]: binds
B1: HA-CYPJ (HA-tagged full-length cyclophilin J) (protein, UniProt Q9H2H8 1-161)
chain: MSVTLHTDVGDIKIEVFCERTPKTCENFLALCASNYYNGCIFHRNIKGFMVQTGDPTGTGRGGNSIWGKKFEDEYSEYLKHNVRGVVSMANNGPNTNGSQFFITYGKQPHLDMKYTVFGKVIDGLETLDELEKLPVNEKTYRPLNDVHIKDITIHANPFAQ

B2: Myc-CYPJ (protein, UniProt Q9H2H8 1-161)
chain: MSVTLHTDVGDIKIEVFCERTPKTCENFLALCASNYYNGCIFHRNIKGFMVQTGDPTGTGRGGNSIWGKKFEDEYSEYLKHNVRGVVSMANNGPNTNGSQFFITYGKQPHLDMKYTVFGKVIDGLETLDELEKLPVNEKTYRPLNDVHIKDITIHANPFAQ
- binding (Flag-TAB3 [5]): binds
- binding [6]: binds

- binding [7]: binds
- binding [8]: binds
B3: endogenous CYPJ (protein, UniProt Q9H2H8 1-161)
chain: MSVTLHTDVGDIKIEVFCERTPKTCENFLALCASNYYNGCIFHRNIKGFMVQTGDPTGTGRGGNSIWGKKFEDEYSEYLKHNVRGVVSMANNGPNTNGSQFFITYGKQPHLDMKYTVFGKVIDGLETLDELEKLPVNEKTYRPLNDVHIKDITIHANPFAQ

- binding (Flag-TAB3 [1]): binds
- binding [2]: binds
B4: TAK1 (transforming growth factor β-activated kinase 1) (protein, UniProt O43318 1-606)
chain: MSTASAASSSSSSSAGEMIEAPSQVLNFEEIDYKEIEVEEVVGRGAFGVVCKAKWRAKDVAIKQIESESERKAFIVELRQLSRVNHPNIVKLYGACLNPVCLVMEYAEGGSLYNVLHGAEPLPYYTAAHAMSWCLQCSQGVAYLHSMQPKALIHRDLKPPNLLLVAGGTVLKICDFGTACDIQTHMTNNKGSAAWMAPEVFEGSNYSEKCDVFSWGIILWEVITRRKPFDEIGGPAFRIMWAVHNGTRPPLIKNLPKPIESLMTRCWSKDPSQRPSMEEIVKIMTHLMRYFPGADEPLQYPCQYSDEGQSNSATSTGSFMDIASTNTSNKSDTNMEQVPATNDTIKRLESKLLKNQAKQQSESGRLSLGASRGSSVESLPPTSEGKRMSADMSEIEARIAATTAYSKPKRGHRKTASFGNILDVPEIVISGNGQPRRRSIQDLTVTGTEPGQVSSRSSSPSVRMITTSGPTSEKPTRSHPWTPDDSTDTNGSDNSIPMAYLTLDHQLQPLAPCPNSKESMAVFEQHCKMAQEYMKVQTEIALLLQRKQELVAELDQDEKDQQNTSRLVQEHKKLLDENKSLSTYYQQCKKQLEVIRSQQQKRQGTS
